Laboratory results taken from the RNAGym collection of RNA variant scans (doi:10.7554/elife.90254).
The source gives no read counts; variants with many changes may rest on few reads.

B1: OR4K15 (parent)
chain: GUUAACGGUCAUAGGCCAUGGAAACUAGGAGCACCAUUUCGCUGCCAGUGAAGAAAUGAACAAAGAAAAUCUGGGCCAGGCAGGCAUCAAAAGAAAUAGUCUUGCGCUCAACCAGAAAGUCUGUAAUCAUUUUAAGGGUA

Variants of: B1
Experiment: self-cleavage, relative activity (ratio to wild type); higher = more cleavage; in vitro, sequencing; the parent is a self-cleaving ribozyme

Variant | self-cleavage
GUUAACGGUCAUAGGCCAUGGAAACUAGGAGCACCAUUUUGCUGCCAGUGAAGAAAUGAACAAAGAGAAUCUGGGCCAGGCAGGCAUCAAAAGAAAUAGUCUUGCGCUCAACCAGAAAGUCUUUAAUCAUUUUAAGGGUA [C40U A67G G123U] | 1.92
GUUAACGGUCAUAGGCCAUGGAAACUAGGAGCACCAUUUUGCUGCCAGUGAAGAAAUGAACAAAGAAAAUCUGGGUCAGGCAGGCAUCAAAAGAAAUAGUCUUGCGCUCAACCAGAAAGCCUGUAAUCAUUUUAAGGGUA [C40U C76U U120C] | 0.1
GUUAACGGUCAUAGGCCAUGGAAACUAGGAGCACCAUUUUGCUGCCAGUGAAGAAAAGAACAAAGAAAAUCUGGGCCAGGCAGGCAUCAAAAGAAAUAGUCUUGCGCUCGACCAGAAAGUCUGUAAUCAUUCUAAGGGUA [C40U U57A A110G U132C] | 0.14
GUUAACGGUCAUAGGCCAUGGAAACUAGGAGCACCAUUGCGCUGCCAGUGAAGAAAUGAACAAGGAAAAUCUGGGCCAGGCAGGCCUCAAAAGAAAUAGUCUUGCGCUCAACCAGAAAGUCUGUAAUCAUUCUAAGGGUA [U39G A64G A86C U132C] | 0.39
GUUAACGGUCAUAGGCCAUGGAAACUAGGAGCACCAUUUCACUGCCAGUGAAGAAAUGAACAAUGAAAAUCUGGGCCAGGCAGGCAUCAAAAGGAAUAGUCUUGCGCUCAACCAGAAAGUCUGUAAUAAUUUUGAGGGUA [G41A A64U A94G C128A A134G] | 0.74
GUUAACGGUCAUAGGCCAUGGAAACUAGGAGCACCAUUGCGCCGCCAGUGAAGAAAUGAACAAAGAAAAUCUGGGCCAGGCAGGCAUCAAAGGAAAUAGUCUUGCGCUCAACCAGAAAGUCUGUAAUCAUUUUAAGGGUA [U39G U43C A92G] | 1.68
GUUAACGGUCAUAGGCCAUGGAAACUAGGAGCACCAUUCCGCUGCCAGUGAAGAAAUGAACAAAGAAAAUCUGGGCCAGGCAGGCAUCAAAAGAAAUAGCCCUGCGCUCAACCAGAAAGUCUGUAAUCAUUUUAAGGGUA [U39C U100C U102C] | 2.36
GUUAACGGUCAUAGGCCAUGGAAACUAGGAGCACCAUUCCGCUGCCAGUGAAGAAAUGAACAAAGAAAAUCUGGGCCAGGCAGGCACCAAAAGAAAUAGUCUUGCGCUCAACCAGAAGGUCUGUAAUCAUCUUAAGGGUA [U39C U87C A118G U131C] | 1.35
GUUAACGGUCAUAGGCCAUGGAAACUAGGAGCACCAUUCCGCUGCCAGUGAAGAAAUGAACAAAGAAAAUCUGGGCCAGGCAGGCACCAAAAGAAAUAGUCUUGCGCUCAACCAGAGAGUCUGUAAUCAUUUUAAGGGUA [U39C U87C A117G] | 2.14
GUUAACGGUCAUAGGCCAUGGAAACUAGGAGCACCAUUUUGCUGCCAGUGAAGAAAUGAACAAAGAAAGUCUGGGCCAGGCAGGCAACAAAAGAAAUAGUCUUGCGCUCAACCAGAAAGUCUGUAAUCAUUUUAAGGGUA [C40U A69G U87A] | 1.3
GUUAACGGUCAUAGGCCAUGGAAACUAGGAGCACCAUUGCGCUGCCAGUGAAGUAAUGAACAAAGAAAAUCUGGGCCAGGCAGGCAUCAGAAGAAAUAGUCUUGCGCUCAACCAGAAAGUCUGUAAUCAUUUUAAGGGUA [U39G A54U A90G] | 1.1
GUUAACGGUCAUAGGCCAUGGAAACUAGGAGCACCAUUUUGCUGCCAGUGAAGAAAUGAACAAAGAAAAUCUGGGCCAGGCAGGCAUCAAAAGAAAUAGUCCUGCGCUCAACCAGAUAGUCUGUAAUCAUUUUAAGGGUA [C40U U102C A117U] | 0.74
GUUAACGGUCAUAGGCCAUGGAAACUAGGAGCACCAUUCCGCUGCCAGUGAAGAAAUGAACAAAGAAAAUCCGGGCCUGGCAGGCAUCAAAAGAAAUAGUCUUGCGCCCAACCAGAAAGUCUGUAAUCAUUUUAAGGGUA [U39C U72C A78U U108C] | 0.02
GUUAACGGUCAUAGGCCAUGGAAACUAGGAGCACCAUUGCGCUGCCAGCGAAGGAAUGAACAAAGAAAGUCUGGGCCAGGCAGGCAUCAAAAGAAAUAGUCUUGCGCUCAACCAGAAAGUCUGUAAUCAUUUUAAGGGUA [U39G U49C A54G A69G] | 1.12
GUUAACGGUCAUAGGCCAUGGAAACUAGGAGCACCAUUUCACUGCCAGUGAGGAAGUGAACAAAGAAAAUCUGGGCCAGGCAGGCAUCAAAAGAAAUAGUCUUGCGCUCAACCAGAAAGUCUGUAAUCAUUUUAAGGGUA [G41A A52G A56G] | 0.9
GUUAACGGUCAUAGGCCAUGGAAACUAGGAGCACCAUUUCACUGCCAGUGAAGAAAUGAACGGAGAAAAUCUGGGCCAGGCAGGCAUCAAAAGAAAUAGUCUUGCGCUCAACCAGAAAGUCUGUAAUCAUUUUAAGGGCA [G41A A62G A63G U139C] | 1.42
GUUAACGGUCAUAGGCCAUGGAAACUAGGAGCACCAUUUAGCUGCCAGUGAAGAAAUGAACAUAGAAAAUCUGGGCCAGGCAGGCAUCGAAAGAAAUAGUCUUGCGCUCAACCAGAAAGUCUGUAAUCAUUUUAAGGGUA [C40A A63U A89G] | 1.52
GUUAACGGUCAUAGGCCAUGGAAACUAGGAGCACCAUUCCGCUGCCAGUGAAGAAAUGAACAAAGAAAAUCUGGGCCAGGCAGGCAUCAAAAGAAAAAGUCUUGCGCUCAACCAGAAAGUCAGUAAUCAUUUUAAGGGUA [U39C U97A U122A] | 2
GUUAACGGUCAUAGGCCAUGGAAACUAGGAGCACCAUUUAGCUGCCAGUGAAGGAAUGAACAAAGAAAAUCUGGGCCAGGCAGGCAUCAAAAGAAAUAGUCUUGCGCUCAACCAGAGAGUCUGUAAUCAUUUUAAGGGUA [C40A A54G A117G] | 2.28
GUUAACGGUCAUAGGCCAUGGAAACUAGGAGCACCAUUUAGCUGCCAGUGAAGAAAUGGACAAAGAAAAUCUGGGCCAGGCAGGCAUCAAAAGAAAUAGUCUUGCGCUCAGCCAGAAAGUCUGUAACCAUUUUAAGGGUA [C40A A59G A111G U127C] | 0.01
GUUAACGGUCAUAGGCCAUGGAAACUAGGAGCACCAUUUCACUGCCGGUGAAGAAAUGGACAAAGAAAAUCUGGGCCAGGCAGGCAUCAAAAGAAAUAGUCUUGCGCUCAACCAGAAAGUCUGUAAUCAUUUUAAGGGUA [G41A A47G A59G] | 0.8

Variant | self-cleavage
GUUAACGGUCAUAGGCCAUGGAAACUAGGAGCACCAUUUUGCUGCCAGUGAAGUAAUGAACAAGGAAAAUCUGGGCCAGGCAGGCAUCAAAAGAAAUAGUCUUGCGCUCAACCAGAAAGUCUGUAAUCAUUUUAAGGGUA [C40U A54U A64G] | 1.45
GUUAACGGUCAUAGGCCAUGGAAACUAGGAGCACCAUUUUGCUGCCAGUGAAGAAACGAACAAAGAAAACCUGGGCCAGGCAGGCAUCUAAAGAAAUAGUCUUGCGCUCAACCAGAAAGUCUGUAAUCAUUUUAAGGGUA [C40U U57C U70C A89U] | 0.4
GUUAACGGUCAUAGGCCAUGGAAACUAGGAGCACCAUUUCACUGCCAGUGAAGAAAUGAGCAAAGAAAAUCUGGGCCAGGCAGGCAUCAAAGGAAAUAGUCUUGCGCUCAACCAGAAAGUCUGUAAUCAUUUUAAGGGUA [G41A A60G A92G] | 0.94
GUUAACGGUCAUAGGCCAUGGAAACUAGGAGCACCAUUUCACUGCCAGUGAUGAAAUGAACAAAGAAAAUCUGGGCCAGGCAGGCAUCAAAAGAAAUAGUCUUGCGCUCAACCAGAAAGUCUGUAAUCACUUUAAGGGUA [G41A A52U U130C] | 1.57
GUUAACGGUCAUAGGCCAUGGAAACUAGGAGCACCAUUUCACUGCCAGUGAAGAAAUGGACAAAGGAAAUCUGGGCCAGGCAGGCAUCAAGAGAAAUAGUCUUGCGCUCAACCAGAAAGUCUGUAAUCAUUUUAAGGGUA [G41A A59G A66G A91G] | 0.84
GUUAACGGUCAUAGGCCAUGGAAACUAGGAGCACCAUUCCGCUGCCAGUGAAGAAAUGAACAAAGAAAAUCUGGGCCAGGCAGGCACCAAAAGAAAUAGUCUUGCGCUCAACCAGGAAGUCUGUAAUCGUUUUAAGGGUA [U39C U87C A116G A129G] | 0.4
GUUAACGGUCAUAGGCCAUGGAAACUAGGAGCACCAUUUUGCUGCCAGUGAAGAAAUGAGCAAAGAAAAUCUGGGCCAGGCAGGCAUCAAAAGAAAUAGUCUUGCGCUCAACCAGAAAGUCUGAAAUCAUUUUAAGGGUA [C40U A60G U124A] | 0.43
GUUAACGGUCAUAGGCCAUGGAAACUAGGAGCACCAUUCCGCUGCCAGUGAAGAAAUGAACAAAGAAAAUCUGGGCCAGGCAGGCACCAAAAGAAAUAGUCUUGCGCUCAACCAGAAAGUCUGUAAUCAUUUUAAGGGCA [U39C U87C U139C] | 1.67
GUUAACGGUCAUAGGCCAUGGAAACUAGGAGCACCAUUCCGCUGCCAGUGAAGAAAUGAACAAAGAAAAUCUGGGCCAGGCAGGCACCAAAAGAAAUAGUCUUGCGCUCAACCAGGAAGUCUGUAAUCAUUUUAAGGGUA [U39C U87C A116G] | 0.42
GUUAACGGUCAUAGGCCAUGGAAACUAGGAGCACCAUUGCGCUGCCAGUGUAGAAGUGAACAAAGAAAAUCUGGGCCAGGCAGGCAUCAAAAGAAAUAGUCUUGCGCUCAACCAGAAAGUCUGUAAUCAUUUUAAGGGUA [U39G A51U A56G] | 1.55
GUUAACGGUCAUAGGCCAUGGAAACUAGGAGCACCAUUCCGCUGCCAGUGAAGAAAUGAACAAAGAAAAUCUGGGCCAGGCAGGCAUCAAAAGAAAUAGCCUUGCGCUCAACCAGAAAGUCUGUAAUCAUUCUAAGGGUA [U39C U100C U132C] | 2.92
GUUAACGGUCAUAGGCCAUGGAAACUAGGAGCACCAUUCCGCUGCCAGUGAAGAAAUGAACAAAGAAAAUCUGGGCCAGGCAGGCACCAAAAGAAAUAGUCUUGCGCUCAACCAGAAAGUCCGUAAUCAUUUUAAGGGUA [U39C U87C U122C] | 1.69
GUUAACGGUCAUAGGCCAUGGAAACUAGGAGCACCAUUUCACUGCCAGUGAAGAAAUGAACGAAGAAAAUCUGGGCCAGGCAGGCAUCGAAAGAAAUAGUCUUGCGCUCAACCAGAAAGUCUGUAAUCAUUUUAAGGGUA [G41A A62G A89G] | 1.71
GUUAACGGUCAUAGGCCAUGGAAACUAGGAGCACCAUUUUGCUGCCAGUGAAGAAAUGAACAAAGGAAAUCUGGGCCAGGCAGGCAUCAAAAGAGAUAGUCUUGCGCUCAACCAGAAAGUCUGUAAUCAUUUUAAGGGUA [C40U A66G A95G] | 1.9
GUUAACGGUCAUAGGCCAUGGAAACUAGGAGCACCAUUUUGCUGCAAGUGAAGAAAUGAGCGGAGAAAAUCUGGGCCAGGCAGGCACCAAAAGGAAUAGUCUUGCGCUCAACCAGAAGGUCUGUAAUCAUUUCAAGGGUA [C40U C46A A60G A62G A63G U87C A94G A118G U133C] | 0.5
GUUAACGGUCAUAGGCCAUGGAAACUAGGAGCACCAUUUAGCUGCCAGUGAAGAAAUGGACAAAGAAAAUCUGGGCCAGGCAGGCAUCAAAGGAAAUAGUCUUGCGCUCAACCAGAAAGCCUGUGAUCGUUUUAAGGGUA [C40A A59G A92G U120C A125G A129G] | 0.11
GUUAACGGUCAUAGGCCAUGGAAACUAGGAGCACCAUUCCGCUGCCAGUGAAGAAAUGAACAAAGAAAAUCCGGGCCAGGCAGGCAUCAAAAGAAAUAGUCUUGCGCUCAACCAGAGAGUCUGUAAACACUAUAAGGGUA [U39C U72C A117G U127A U130C U132A] | 0.11
GUUAACGGUCAUAGGCCAUGGAAACUAGGAGCACCAUUCCGCUGCCAGUGAAGAAAUGAACAAAGAAAAUCUGGGCCAGGCAGGCAUCAAAAGAAAUAGUCUUGCGCUCAACCAGAAAGUCUGUAAUCAUUCCAAGGGUA [U39C U132C U133C] | 0.57
GUUAACGGUCAUAGGCCAUGGAAACUAGGAGCACCAUUGCGCUGCCAGUGAAGAAAUGAACAAAGAAAAUCUGGGCCACGCAGGCAUCAAAAGAAAUAGUCUUGCGCUCAACCAGAAAGUCUGAAGUCAUUUUAAGGGUA [U39G G79C U124A A126G] | 0.01
GUUAACGGUCAUAGGCCAUGGAAACUAGGAGCACCAUUGCGCCGCCAGUGAAGAAAUGAACAAAGAAAAUCUGCGCCAGGCAGGCGUCAAAAGAAAUAGUCUUGCGCUCAAUCAGAAAGUCUGUAAUCAUUUUAAGGGUA [U39G U43C G74C A86G C112U] | 0.01
